SMILES strings stand for the structures. About 2,200 (0.71%) of roughly 310,000 compounds showed an effect of 50% or more. Effects have a minus sign here. The list shows a part of the results.

human ether-à-go-go-related gene (hERG) potassium channel, sequence (Q12809 whole entry, looked up): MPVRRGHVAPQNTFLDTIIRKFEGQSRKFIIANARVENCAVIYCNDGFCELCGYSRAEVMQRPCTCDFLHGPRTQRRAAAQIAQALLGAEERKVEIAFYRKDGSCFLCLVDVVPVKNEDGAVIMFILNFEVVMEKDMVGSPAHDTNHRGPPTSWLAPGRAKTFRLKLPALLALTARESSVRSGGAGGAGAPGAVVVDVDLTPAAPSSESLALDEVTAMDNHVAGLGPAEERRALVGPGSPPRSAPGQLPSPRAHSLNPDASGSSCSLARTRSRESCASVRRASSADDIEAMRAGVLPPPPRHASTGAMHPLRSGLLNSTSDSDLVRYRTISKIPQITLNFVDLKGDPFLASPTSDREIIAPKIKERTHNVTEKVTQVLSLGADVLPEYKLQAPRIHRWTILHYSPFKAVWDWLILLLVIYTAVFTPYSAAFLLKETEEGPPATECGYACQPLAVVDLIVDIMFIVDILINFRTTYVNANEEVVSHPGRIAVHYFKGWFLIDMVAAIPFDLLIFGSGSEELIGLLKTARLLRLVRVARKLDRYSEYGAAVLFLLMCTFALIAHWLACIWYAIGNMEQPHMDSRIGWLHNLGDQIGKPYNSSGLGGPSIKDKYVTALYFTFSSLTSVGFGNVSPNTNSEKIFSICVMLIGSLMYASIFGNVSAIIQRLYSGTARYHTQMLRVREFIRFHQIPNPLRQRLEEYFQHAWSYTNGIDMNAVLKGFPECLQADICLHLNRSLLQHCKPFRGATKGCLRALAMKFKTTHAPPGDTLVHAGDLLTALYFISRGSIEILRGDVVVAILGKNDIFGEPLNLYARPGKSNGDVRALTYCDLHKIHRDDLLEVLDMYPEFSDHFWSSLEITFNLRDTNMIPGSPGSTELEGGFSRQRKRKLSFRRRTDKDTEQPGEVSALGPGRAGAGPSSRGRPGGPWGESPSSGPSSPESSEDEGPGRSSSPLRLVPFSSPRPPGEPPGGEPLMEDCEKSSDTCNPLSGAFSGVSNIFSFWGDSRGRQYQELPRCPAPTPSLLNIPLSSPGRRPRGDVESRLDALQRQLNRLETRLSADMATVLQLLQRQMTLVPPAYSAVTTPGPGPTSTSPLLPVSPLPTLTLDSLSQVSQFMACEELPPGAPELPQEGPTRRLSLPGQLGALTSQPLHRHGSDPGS

This test concerns the target human ether-à-go-go-related gene (hERG) potassium channel (human, UniProt Q12809). In words: primary screen, population patch clamp on CHO cells stably expressing hERG.
`O=C(Nc1ccnn1C1CCN(C2CCCCC2)CC1)c1ccccc1`: the “hERG current change (%, negative = inhibition) at 1uM” value is listed as 12.1%.
The same measure for `O=C(COc1cc(F)ccc1[N+](=O)[O-])Nc1ccc(N2CCCCC2)cc1`: 5.98%; for `CCOc1ccc(S(=O)(=O)NCC2CCCO2)cc1` (stereo not shown): 0.189%.
To `S=C1CSc2ccccc2N1` belongs 5.58%; to `CCOc1cc(/C=N/NC(=O)C2CCCC2)ccc1OC(C)C`, 10%; to `COC(=O)C1=C(C)NC(=O)CC1c1cc(Br)ccc1F` (stereo not shown), 10.9%.
As to `COc1ccc(CC(NC(C)=O)C(=O)NC2CCN(C(=O)C3CCCCC3)CC2)c(OC)c1` (stereo not shown), the “hERG current change (%, negative = inhibition) at 1uM” value was determined as 15.6%.
The same measure for `O=C(O)c1cnc(-c2ccccc2)nc1Sc1ccc(Cl)cc1Cl`: 2.55%; for `O=C(Cc1cccs1)N(CC1CCCO1)C1(C(=O)NC2CCCCC2)CCCCC1` (stereo not shown): 13.6%; for `CCOP(=O)(OCC)C(NC(=O)NS(=O)(=O)c1ccc(C)cc1)c1ccccc1` (stereo not shown): 10.1%.
The same measure for `COc1cc(Cl)c(S(=O)(=O)N2CCOCC2)cc1Cl`: 1.24%; for `COC(=O)[C@H]1[C@H]2C[C@@H]3c4[nH]c5cc(OC)ccc5c4CCN3C[C@H]2C[C@@H](OC(=O)c2ccc(N)cc2)[C@@H]1OC`: 1.62%.
As to `C=CCNC(=O)c1ccc(Cl)cc1Cl`, the “hERG current change (%, negative = inhibition) at 1uM” value is 13.4%.
The same measure for `COc1ccc(N(C(=O)C(C)C)S(=O)(=O)c2ccc3c(c2)n(C)c(=O)n3C)cc1`: 6.68%; for `CN(C(=O)c1ccncc1)C1CC(C)(C)N(O)C(C)(C)C1`: 4.11%; for `CCCCn1c(O)c(/C=N/NC(=O)c2ccncc2)c(=O)[nH]c1=O`: 5.98%.
As for `COC(=O)c1[nH]c(C)c(/C(O)=C2\C(=O)C(=O)N(CCN3CCOCC3)C2c2ccccc2OC)c1C` (stereo not shown), the “hERG current change (%, negative = inhibition) at 1uM” value was determined as 24%.
For the molecule `O=C(NCc1ccc(Cl)s1)C1CCC(=O)N(CCc2ccccn2)C1` (stereo not shown), the “hERG current change (%, negative = inhibition) at 1uM” value is recorded as 8.38%.
Regarding `O=C(Nc1ccc(F)c(Cl)c1)c1ccc2c(=O)n3c(nc2c1)CCCCC3`, the “hERG current change (%, negative = inhibition) at 1uM” value is -6.01%.
In the case of `COc1ccc2cc3cc(C(=O)NC(C)C)oc3nc2c1`, the “hERG current change (%, negative = inhibition) at 1uM” value worked out at 9.83%.
Consider `COc1ccc(C(=O)c2sc(Nc3ccccc3)c(C(=O)Nc3ccc(OC)c(OC)c3)c2N)cc1`, for which the “hERG current change (%, negative = inhibition) at 1uM” value came out at 7.84%.
The same measure for `O=C(/C(=C\c1ccccc1)c1nc2ccccc2[nH]1)c1ccc(Cl)cc1`: 15.1%.
The same measure for `Cc1ccc(NC2CCCN(C(=O)c3cccnc3)C2)cc1C` (stereo not shown): 12.2%; for `O=C(CS(=O)CC(=O)Nc1ccccc1-c1ccccc1)Nc1ccc(F)cc1` (stereo not shown): 8.6%.
The same measure for `CC(=O)O/N=C/c1c(N2CCOCC2)n(C)c2ccccc12`: -7.31%; for `O=C(O)CSc1c2ccccc2cc2ccccc12`: 9.22%.
In the case of `COc1cc(C(=O)N=c2sccn2C)c([N+](=O)[O-])cc1OC`, the “hERG current change (%, negative = inhibition) at 1uM” value is given as 18%.
To `CCN1C(=O)c2ccccc2S(=O)c2ccc(C(=O)N3CCCCCC3)cc21` (stereo not shown) belongs 3.93%; to `CCC(C)(C)NC(=O)c1cc(S(=O)(=O)N2CCc3ccccc32)cn1C`, 0.204%; to `CCOc1cc(/C=C2\COc3ccccc3C2=O)cc(Br)c1OCC(=O)N(C)C`, 9.06%.
Turning to `CCOc1ccc(NC(=O)CCN2CCCCC2)cc1`, the “hERG current change (%, negative = inhibition) at 1uM” value came out at 3.51%.
To `COC(=O)CC1COc2ccccc2N1C(=O)c1cccc(Cl)c1` (stereo not shown) belongs 10.2%; to `CCCCn1c(=S)[nH]c2ccccc2c1=O`, 14.1%; to `Cc1cccc(C)c1NC(=O)CCCSc1nc2ccccc2s1`, 11.3%.
To `O=C(NNc1nc(-c2ccc(Br)cc2)cs1)c1ccco1` belongs 0.235%; to `CCOC(=O)c1cnn(-c2nc(-c3ccccc3)nc3c2COC(C)(C)C3)c1N`, 13%.
The same measure for `CCOc1ccc(CCNC(=O)Nc2ccccc2)cc1OCC`: 14.3%; for `CC(CCC(=O)O)(c1ccc(O)cc1)c1ccc(O)cc1`: 8.24%.
On to `CCOC(=O)c1sc(NC(=O)/C=C/c2c(F)cccc2Cl)nc1C`, for which the “hERG current change (%, negative = inhibition) at 1uM” value is reported as 6.05%.
The same measure for `O=C(COc1cc2oc(=O)c3c(c2cc1Cl)CCC3)Nc1ccccn1`: 25.5%.
The same measure for `Cc1ccc(S(=O)(=O)NCC(=O)OCC(=O)N2CCc3ccccc32)cc1`: 7.58%; for `CCC(C)NC(=S)N1CCN(C)CC1.O=C(O)C(=O)O` (stereo not shown): 6.59%; for `O=C(NC1CCCCC1)C1CCCN1S(=O)(=O)c1cccc2nsnc12` (stereo not shown): 0.411%.
The same measure for `C=CCN1CCC2(C)c3cc(O)ccc3CC1C2C.Cl` (stereo not shown): 0.0104%.
Take `Cc1cc(NC(=O)CSc2ncnc3c2cnn3-c2ccccc2)no1`: the “hERG current change (%, negative = inhibition) at 1uM” value is reported as 1.35%.
To `Nc1ncnc2nc(SCCc3ccccc3)[nH]c12` belongs 7.78%.
On to `Fc1ccccc1OCCCCSc1ncccn1`, for which the “hERG current change (%, negative = inhibition) at 1uM” value is reported as -3.5%.
The same measure for `CCn1c(SCC(=O)n2c(C)c(C)c3ccccc32)nnc1-c1ccco1`: 4.66%; for `COc1ccc(CCN2CC(C(=O)N(C)Cc3cccnc3)CC2=O)cc1OC` (stereo not shown): 12.1%; for `COc1ccc(NS(=O)(=O)c2cc([N+](=O)[O-])ccc2N/N=C\c2c(C)[nH]c3ccccc23)cc1`: 21.6%.
On to `CCCCc1ccc(NC(=S)NCC2CCCO2)cc1` (stereo not shown), for which the “hERG current change (%, negative = inhibition) at 1uM” value is on record as 5.49%.
The same measure for `COC(=O)c1ccc(C(=O)OC)c(NC(=S)N2CCN(c3ccccc3F)CC2)c1`: -29.5%.
As to `O=C(O)CC(CP(=O)(c1ccccc1)c1ccccc1)C(=O)O` (stereo not shown), the “hERG current change (%, negative = inhibition) at 1uM” value amounted to 6.5%.
The same measure for `CC(=O)N1CCc2ccc(S(=O)(=O)N3CCc4ccccc43)cc21`: -8.82%; for `COc1ccccc1N1CCN(C2CCCN(Cc3cccc(O)c3)C2)CC1` (stereo not shown): 4.93%; for `COc1ccccc1NCC(=O)c1ccc(Cl)cc1`: 14.4%.
The same measure for `CC1CC(NC(=O)/C=C/C(=O)O)CC(C)(C)C1` (stereo not shown): 14.1%; for `O=C(CSc1nnc(-c2ccccc2Cl)o1)Nc1ccccn1`: 12.5%; for `COc1ccc(C)cc1NC(=O)Nc1ccccc1SC`: 7.54%.
To `Nc1cc(OC(=O)c2ccccc2Br)nn1S(=O)(=O)c1ccccc1` belongs 16.2%; to `COc1ccc(OCC(=O)N2CCN(C(=O)c3ccc([N+](=O)[O-])cc3)CC2)cc1`, -43.2%.
On to `CCOc1ccccc1NC(=S)Nc1ccc2cn[nH]c2c1`, for which the “hERG current change (%, negative = inhibition) at 1uM” value is 8.93%.
To `COc1cc(/C=C2\C(=N)N3N=C(C)SC3=NC2=O)cc(OC)c1OCCOc1ccccc1C` belongs 16.6%; to `CC1CCN(S(=O)(=O)c2cccc(-c3csc(-c4cccnc4)n3)c2)CC1`, 3.5%.
To `O=C(CSc1nnc(-c2ccccc2)o1)OCc1ccccc1` belongs 13.1%; to `Cc1ccc(N2CC3=C(C2=O)C(c2ccccc2)NC(=O)N3C)cc1` (stereo not shown), 6.1%.
The same measure for `COc1ccc(CCNC(=O)CSc2c[nH]c3ccccc23)cc1OC`: 1.43%; for `N#C/C(=C\c1ccc(N2CCOCC2)o1)C(=O)NC1CCCCC1`: 10.1%; for `CN(C)C(=O)CN1CCN(c2nc3nonc3nc2N2CCCCC2)CC1`: 4.21%.
Turning to `Cc1ccc2c(=O)cc(C(=O)NCCc3ccc(S(N)(=O)=O)cc3)oc2c1`, the “hERG current change (%, negative = inhibition) at 1uM” value was 14.4%.
To `COc1ccc(S(=O)(=O)N(C)CC(=O)N2CCCCCC2)cc1` belongs 18%; to `Cc1ccc(NC(=O)COC(=O)c2cccc3c(=O)c(C)c(-c4ccccc4)oc23)cc1`, 8.91%; to `COc1ccc(-n2c(C)cc(C(=O)COC(=O)c3cc(NC(=O)c4cccs4)c(OC)c(OC)c3)c2C)cc1`, 7.28%.
The same measure for `CCC(=O)N(Cc1ccco1)c1nc(-c2ccc(OC)cc2)cs1`: 5.7%.
The same measure for `Cc1c(Cc2ccccc2)sc(NC(=O)C(C)(C)C)c1C(N)=O`: 0.402%.
As to `O=S(=O)(NC(=NCc1ccccc1)c1ccc(F)cc1)c1ccc(Cl)cc1`, the “hERG current change (%, negative = inhibition) at 1uM” value is reported as 19.9%.
The same measure for `COc1ccc(C(=O)N(C)CC(O)c2ccccc2)cc1OC1CCN(C(C)=O)CC1` (stereo not shown): 7.98%; for `Cc1[nH]n(-c2ccc(F)cc2)c(=O)c1/C=N/c1sc2c(c1C#N)CCCC2`: 18.2%; for `CCc1ccc(/C=C2\Oc3cc(OC(=O)N4CCOCC4)ccc3C2=O)cc1`: 15.6%.
As for `CNc1nc(-c2c(C)[nH]c3ccc(OC)cc23)cs1`, the “hERG current change (%, negative = inhibition) at 1uM” value was determined as 8.83%.
To `Brc1ccc(Nc2c3c(nc4ncnn24)CCC3)cc1` belongs -7.63%; to `COc1ccc(CN(C)C(=O)Cc2ccc(S(=O)(=O)N3CCOCC3)s2)cc1OC`, 15.7%; to `COc1ccc(C(=O)Oc2cc(/C=N/NS(=O)(=O)c3ccccc3)ccc2OC)cc1`, 10.6%.
In the case of `CCOc1ccc(C(=O)NC(=S)NCc2cccnc2)cc1`, the “hERG current change (%, negative = inhibition) at 1uM” value came to 14.6%.
To `O=C(Nc1ccncc1)Nc1ccc(F)cc1F` belongs 20.1%; to `C[C@H](NC(=O)OCc1ccccc1)C(=O)NNC(=O)[C@H](C)NC(=O)OCc1ccccc1`, 13.4%.
The same measure for `Cc1cccc(NC(=O)NCC2CCN(c3ccc(S(=O)(=O)N4CCOCC4)cc3)CC2)c1`: 8.19%; for `O=S(=O)(c1ccc(SCc2ccccc2)nc1)N1CCCCCC1`: 5.08%.

The record behind these values is paper PMC4336329 (PLoS ONE, 2015).
